The source gives no read counts; variants with many changes may rest on few reads.
B1: CPEB3 Ribozyme (parent)
chain: UAACAGGGGGCCACAGCAGAAGCGUUCACGUCGCAGCCCCUGUCAGAUUCUGGUGAAUCUGCGAAUUCUGCUGUAUAUCUC

Variants of: B1
Assay: self-cleavage, relative activity (ratio to wild type); higher = more cleavage; in vitro, sequencing
In short: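 Barcoded CPEB3 ribozyme mutants, produced by rounds of error-prone PCR, self-cleaved while being transcribed with T7 RNA polymerase for 5 hours at 37°C and during a subsequent 15 min DNase I step before EDTA was added. Sequencing of template-switched cDNA on Illumina gave cleaved and total reads, and DNA sequencing assigned barcodes to variants. Each variant's relative activity is its cleaved/total read fraction divided by the unmutated ribozyme's fraction, averaged across three batches. A variant needed a minimum of 5 reads.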

Row | Variant | self-cleavage
1 | UAGCAGGGGGCCGCAGCUGAAGCGUUCAAGUCGCAGCCCCUGUCAGAUUCUGGUGAAUCUGCGAAUUCUGCUGUAUAUCUC [A3G A13G A18U C29A] | 0.37
2 | UAGCAGGGGGCCGCAGCUGAAGCGUCCACGUCGCAGCCCCUGUCAGAUUCUGGUGGAUCUGCGAACUCUGCUGUAUAUCUC [A3G A13G A18U U26C A56G U66C] | 0
3 | UAGCAGGGGGCCGCAGCAGGAGCGUUCACGUCGCAGCCCCUGUCAGAUUCUGGUGAGUCCGCGAAUUCUGCUGUAUAUCUC [A3G A13G A20G A57G U60C] | 0.79
4 | UAGCAGGGGGCCGCAGCAGGAGCGCUCACGUCGCAGCCCCUGUCAGAUUCUGGUGAAUCUGCUAAUUCUGCUGUAUAUCUC [A3G A13G A20G U25C G63U] | 0.75
5 | UAGCAGGGGGCCGCAGCAGUAGCGUUCGCGUCGCAGCCCCUGUCAGAUUCUGGUGAAUCUGCGAAUUCUGCUGUAUAUCUC [A3G A13G A20U A28G] | 0.08
6 | UAGCAGGGGGCCGCAGCAGAGGCGUUCACGUCGCAGCCCCUGUCAGAUUCUGGUGAAUCUGCGAAUUCUGCUGUAUAUCUC [A3G A13G A21G] | 0.32
7 | UAGCAGGGGGCCGCAGCAGAAGCGUUCGCGUCGCAGCCCCUGUCAGAUUCUGGGGAAUCUGCGAAUUCUGCUGUUUGUCUC [A3G A13G A28G U54G A75U A77G] | 0.52
8 | UAGCAGGGGGCCGCAGCAGAAGCGUUCACGUCGCGGCCCCUGUCAGAUUCUGGUGAAUCUGCGAAUUCUGCUGUAUAUCUC [A3G A13G A35G] | 0.91
9 | UAGCAGGGGGCCGCAGCAGAAGCGUUCACGUCGCGGCCCCUGUCAGAUUCUGGUGAAUCUGCGAAUUCUGCAGUAUAUCUC [A3G A13G A35G U72A] | 0.2
10 | UAGCAGGGGGCCGCAGCAGAAGCGUUCACGUCGCUGCCCCUGUCAGAUCCUGGUGAUUCUGCGAAUUCUGCUGUAUAUCUC [A3G A13G A35U U49C A57U] | 1
11 | UAGCAGGGGGCCGCAGCAGAAGCGUUCACGUCGCAGCCCCUGUCAGGUUCUGGUGAAUCUGCGAUUUCUGCUGUAUAUCUC [A3G A13G A47G A65U] | 0.39
12 | UAGCAGGGGGCCGAAGCAGAAGCGUACACGUCGCAGCCCCUGUCAGAUUCUGGUGAAUCCGCGAAUUCUGCUGUAUAUCUC [A3G A13G C14A U26A U60C] | 0.31
13 | UAGCAGGGGGCCGCAGCAGAAGUGUUCACGUCGCAGCCCCUGUCAGAUUCUGGUGAAUCUGAGAAUUCAGCUGUAUACCUC [A3G A13G C23U C62A U69A U78C] | 0.13
14 | UAGCAGGGGGCCGCAGCAGAAGUGUUCACGUCGCAGCCCCUGUCAGAUUCUGGUGAAUCUGCGAAUUCUGCAGUAUAUCUC [A3G A13G C23U U72A] | 0.13
15 | UAGCAGGGGGCCGCAGCAGAAGCGUUCACGUAGCAGCCCCUGUCAGAUUCUGGUGAAUCUGCGAAUUCUGCUGUAUAUCUC [A3G A13G C32A] | 0.55
16 | UAGCAGGGGGCCGCAGCAGAAGCGUUCACGUCGGAGCCCCUGUCAGAUUCUGGUGAAUCUGCGAAUUCUGCCGUAUACCUC [A3G A13G C34G U72C U78C] | 0.15
17 | UAGCAGGGGGCCGCAGCAGAAGCGUUCACGUCGCAGCUCCUAUCAGAUUCUGGUGAAUCUGCGAAUUCCGCUGUAUAUCUC [A3G A13G C38U G42A U69C] | 0.07

Row | Variant | self-cleavage
18 | UAGCAGGGGGCCGCAGCAGAAGCGUUCACGUCGCAGCCUCUGUCAGAUCCUGGUGGAUCUGCGAAUUCUGCUGUAUAUCUC [A3G A13G C39U U49C A56G] | 0.52
19 | UAGCAGGGGGCCGCAGCAGAAGCGUUCACGUCGCAGCCCCUGUCAGAUUCUGGUGAAUCUGUGAAUUCUGCUGAAUAUCUC [A3G A13G C62U U74A] | 0.38
20 | UAGCAGGGGGCCGCAGCAGAAGCGUUCACGUCACAGCCCCUGUCAGAUUCUGGUGAAUCUGCGAGUUCUGCUGAAUAUCUC [A3G A13G G33A A65G U74A] | 0.08
21 | UAGCAGGGGGCCGCAGCAGAAGCGUUCACGUCGCAGCCCCUGUCAUAUUCAGGUGAGUCUGCGAAUUCUGCUGUAUAUCGC [A3G A13G G46U U51A A57G U80G] | 0.31
22 | UAGCAGGGGGCCGCAGCAGAAGCGUUCACGUCGCAGCCCCUGUCAUAUUCUGGUGAAUCUGCGAAUUCUGCCGUAUAUCGC [A3G A13G G46U U72C U80G] | 0.44
23 | UAGCAGGGGGCCGCAGCAGAAGCGCUCACGUCGCAGCCCCUGUCACAUUCUGGUGAAUCUGCGAAUUCUGCUGUAUAUCUC [A3G A13G U25C G46C] | 0.1
24 | UAGCAGGGGGCCGCAGCAGAAGCGCUCACGCCACAGCCCCUGUCAGAUUCUGGCGAAUCUGUGAAUUCUGCUGUAUAUCUC [A3G A13G U25C U31C G33A U54C C62U] | 0.29
25 | UAGCAGGGGGCCGCAGCAGAAGCGUACGCGUCGCAGCCCCUGUCAGAUUCUGGUGAAUCUGCGAGUUCUGCUGUAUAUCUC [A3G A13G U26A A28G A65G] | 0.21
26 | UAGCAGGGGGCCGCAGCAGAAGCGUACACGUCGCAGCCCCUGUCAGAUUCCGGUGAAUCUGCGAGUUCUGCUGUAUAUCUC [A3G A13G U26A U51C A65G] | 0.37
27 | UAGCAGGGGGCCGCAGCAGAAGCGUUCACGACGCAGCCCCUGUCAGAUUCUGGCGAAUCUGCAAAUUCUGCUGUAUAUCUC [A3G A13G U31A U54C G63A] | 0.44
28 | UAGCAGGGGGCCGCAGCAGAAGCGUUCACGCCGCAGCCCCUGUCAGAUUCUGGUGAAUCUGCGAAUUCUGCUGUAUAUCUC [A3G A13G U31C] | 0.54
29 | UAGCAGGGGGCCGCAGCAGAAGCGUUCACGCCGCAGCCACUGUCAGAUUCUGGUGAAUCUGCGAAUUCUGCUGUAUAUCUC [A3G A13G U31C C39A] | 0.38
30 | UAGCAGGGGGCCGCAGCAGAAGCGUUCACGCCGCAGCCCCCGUCAGAUUCUGGUGAAUCUGCGGAUUCUGCUGUUUAUCUC [A3G A13G U31C U41C A64G A75U] | 0.62
31 | UAGCAGGGGGCCGCAGCAGAAGCGUUCACGGCGCAGCCCCUGUCAUAUUCUGGUGAAUCUGCGAAUUCUGCUGUAUAUCGC [A3G A13G U31G G46U U80G] | 0.63
32 | UAGCAGGGGGCCGCAGCAGAAGCGUUCACGUCGCAGCCCCCGUCAGAUUCUGGUGAGUCUGCGAGUUCUGCUGUAUACCUC [A3G A13G U41C A57G A65G U78C] | 0.4
33 | UAGCAGGGGGCCGCAGCAGAAGCGUUCACGUCGCAGCCCCCGUCAGAUUCUGGUGAAUCUGCGAAUUCUGCUGUGUAUCUC [A3G A13G U41C A75G] | 0.74
34 | UAGCAGGGGGCCGCAGCAGAAGCGUUCACGUCGCAGCCCCUGACAGAUUCUGGUGGAUCUGCGAAUUCUGCUGAAUAUCUC [A3G A13G U43A A56G U74A] | 1.12

Source: the RNAGym collection of RNA variant scans (doi:10.1093/nar/gkz1192)
